Measurements reported in PubChem BioAssay AID651820 (National Center for Advancing Translational Sciences (NCATS), 2012).
Out of some 340,000 compounds screened, about 12,000 (3.5%) were called active. This list was built around the results that the source calls inconclusive (neither active nor inactive); the mix of calls is not that of the screen. Calls come from the whole dose curve; as a rule, active = well fitted inhibition curve with a large enough effect; inconclusive = small, poorly fitted or top-dose-only effect, or another doubt; inactive = no such curve, though single readings can be large or run the other way. Potencies of inconclusive entries are left out as doubtful fits.
% is set by controls: 0 for no effect and ±100 for the full control effect; potency is the fitted concentration of half-maximal effect; tags give direction and shape of the fitted curve.

Test: qHTS Assay for Inhibitors of Hepatitis C Virus (HCV)
Conditions: Huh7.5.1 HCVcc-Cre (HCVcc is cell-culture hepatitis C virus) infection, luciferase reporter, 44 h; activity change, negative = inhibition: at 41.8 µM (top of the series)
In short: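 A cell-based infection assay in which seeded cells (1,000 per well) receive test compound after 4 h, are inoculated with HCVcc-Cre at approximately 0.5 moi, and are incubated 44 h before luminescence detection.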
With `N#Cc1c(NC(=S)NC(=O)c2ccccc2)sc2c1CCN(CCc1ccccc1)C2` the Potency was “inactive”.
With `CCCn1c(NC(=O)C2CCN(C(=O)c3ccccc3C)CC2)nc2ccccc21` the Potency was inconclusive [inhibitor, full curve].
In the case of `COc1cccc(N=c2oc3ccccc3cc2-c2nc3ccccc3[nH]2)c1`, the Potency is reported as inconclusive [inhibitor, single point].
For `c1ccc2c(c1)CCc1ccccc1C2=C1CCNCC1`, the Potency was “inactive”.
With `COc1ccc(NC(=O)C2=Cc3cccc(OC)c3OC2)cc1` the Potency was inconclusive [inhibitor, single point].
With `COc1ccccc1CNC(=O)Cc1ccc(Br)cc1` the Potency was inconclusive [inhibitor, partial curve, poor fit].
For `O=C(NCc1ccncc1)C(=O)Nc1nc(C23CC4CC(CC(C4)C2)C3)cs1`, the Potency was inconclusive [inhibitor, single point].
For `CCOc1cc(N2CCOCC2)c(OCC)cc1NC(=O)c1c(-c2ccccc2Cl)noc1C`, the Potency was inconclusive [inhibitor, partial curve].
For `Cc1ccc(NC(=O)/C(C#N)=C/c2cc(C)n(-c3ccc(N4CCOCC4)c([N+](=O)[O-])c3)c2C)c(C)c1`, the Potency was inconclusive [inhibitor, full curve].
For `Clc1ccc(-c2nc3ccccn3c2CN2CCSCC2)cc1`, the Potency was inconclusive [inhibitor, single point].
For `O=C(COc1cccc(Br)c1)N/N=C1\CCCc2ccccc21`, the Potency was inconclusive [inhibitor, partial curve].
With `CC(=O)Nc1nonc1-c1nc2ccccc2n1CC1CC1` the Potency was inconclusive [inhibitor, partial curve].
In the case of `COC(=O)c1ccc(CSc2nc3ccccc3c(=O)n2CC(C)C)o1`, the Potency is reported as inconclusive [inhibitor, partial curve].
In the case of `CNC(=O)N(O)C1N(/N=C/c2cc(Br)ccc2O)C(=S)SC1(C)C` (configuration not stated), the Potency is reported as active: 11.2 µM.
For `CN(Cc1ccccc1)S(=O)(=O)c1ccc(NC(=S)NC(=O)C2CCCCC2)cc1`, the Potency was active: 10 µM.
In the case of `CC(=O)Nc1ccccc1C(=O)C(=O)Nc1cccc(Br)c1`, the Potency is reported as inconclusive [inhibitor, partial curve].
For `N#Cc1c(NC(=O)CSc2nc(N)cc(=O)[nH]2)sc2c1CCCCCC2`, the Potency was inconclusive [inhibitor, full curve].
For `Cc1nc2ccc(S(=O)(=O)Nc3cccc(-c4nc5cccnc5s4)c3C)cc2s1`, the Potency was inconclusive [inhibitor, partial curve].
For `Cc1nnc(SCC(=O)N/N=C/c2ccc(-c3ccc(C)c(Cl)c3)o2)s1`, the Potency was “inactive”.
In the case of `N#CCC1c2ccccc2CCN1C(=O)Nc1ccc(C(F)(F)F)cc1` (configuration not stated), the Potency is reported as inconclusive [inhibitor, single point].
For `CN(Cc1ccccc1)c1nc(N)nc(Cl)c1C=O`, the Potency was active: 3.98 µM.
With `COc1cccc(-c2ncc3ccccc3c2COC(=O)c2cccc(Br)c2)c1` the Potency was inconclusive [inhibitor, single point].
With `O=C(NC1c2ccccc2Oc2ccccc21)c1ccc([N+](=O)[O-])cc1` the activity change, negative = inhibition was inconclusive: -75.4% [inhibitor].
For `Clc1ccc(NCc2cccnc2)cc1`, the Potency was “inactive”.
In the case of `O=C(Nc1cccnc1)c1noc2c1CCCC2`, the Potency is reported as “inactive”.
For `C=CC[n+]1ccc2ccccc2c1C`, the Potency was “inactive”.
In the case of `Cc1cn2c(=O)c(C(=O)N3CCN(c4ccccc4F)CC3)cnc2s1`, the Potency is reported as “inactive”.
For `NC(=O)c1c(NC(=O)c2ccc(N3C(=O)CCC3=O)cc2)sc2c1CCCC2`, the Potency was inconclusive [inhibitor, full curve, poor fit].
In the case of `Cc1ccc(NS(=O)(=O)c2ccc3c(c2)NC(=O)CCS3)cc1C`, the Potency is reported as “inactive”.
In the case of `COc1ccccc1N1CCN(/N=C/c2cc([N+](=O)[O-])ccc2Cl)CC1`, the Potency is reported as “inactive”.
In the case of `N#CC(C#N)=C1C=CC=CN1/C(=C\c1ccco1)C(=O)c1ccccc1`, the Potency is reported as inconclusive [inhibitor, partial curve].
With `CC(=O)Oc1ccc(/C=C(\NC(=O)c2ccco2)C(=O)NCc2ccco2)cc1` the Potency was “inactive”.
For `CC(OCC(O)CN(C)CCOc1ccccc1)c1ccc(Cl)cc1` (configuration not stated), the Potency was “inactive”.
With `COc1ccc(Cl)cc1NC(=O)CNc1ccccc1CN(C)C1CCCCC1` the Potency was “inactive”.
In the case of `COc1ccc(OC)c(CNC(=O)Cc2c(C(=O)O)[nH]c3ccccc23)c1`, the Potency is reported as “inactive”.
With `Cn1nc(OC(=O)Nc2ccc(Cl)cc2)cc1C(F)(F)F` the Potency was “inactive”.
With `C[C@@H]1C2C[C@@]34COC(=O)C3=CC=C[C@H]4[C@@]13C[C@H](c1ccoc1)O[C@@H]3O2` the Potency was inconclusive [inhibitor, single point].
For `CCOC(=O)c1c(NC(=O)CN2CCOCC2)sc2c1CC(C)(C)OC2`, the Potency was inconclusive [inhibitor, full curve].
For `COc1ccc(/C=C(\NC(=O)c2ccccc2)C(=O)N/N=C/c2sccc2C)cc1`, the Potency was inconclusive [inhibitor, full curve].
With `COC(=O)C(CC(C)C)N(Cc1cc(OC)cc(OC)c1)S(=O)(=O)c1ccccc1Br` (configuration not stated) the Potency was inconclusive [inhibitor, partial curve].
With `CN1CCN(C(=S)NC(=O)c2ccc(Br)cc2)CC1` the Potency was inconclusive [inhibitor, single point].
With `Cn1nccc1C(=O)Nc1ccc(Cl)cc1` the Potency was “inactive”.
For `O=C(c1ccc(Br)cc1)N1CCN(Cc2ccccc2)CC1`, the Potency was inconclusive [inhibitor, single point].
In the case of `COc1cc2nc(CN3CCC(C(O)(c4ccccc4)c4ccccc4)CC3)[nH]c(=O)c2cc1OC`, the Potency is reported as inconclusive [inhibitor, partial curve].
In the case of `COc1cc(NS(=O)(=O)c2ccc(N/C=C(\C=O)c3nc4ccccc4o3)cc2)nc(OC)n1`, the Potency is reported as “inactive”.
With `CCCCn1c(=O)[nH]c(=O)c2c1nc(-c1ccc(C)c([N+](=O)[O-])c1)n2CC` the Potency was inconclusive [inhibitor, single point].
In the case of `COc1ccccc1NS(=O)(=O)c1cccc(NC(=O)c2nn(C)c(=O)c3ccccc23)c1`, the Potency is reported as inconclusive [inhibitor, partial curve].
